Experimental findings from the RNAGym collection of RNA variant scans (doi:10.1073/pnas.2313332121) are described below.

This sample is rich in variants without activity.

The labels stand for the following.
B1: TPR 5TU (parent)
chain: GGAUCUUCUCGAUCUAACAAAAAAGACAAAUCUGCCACAAAGCUUGAGAGCAUCUUCGGAUGCAGAGGCGGCAGCCUUCGGUGGCGCGAUAGCGCCAACGUUCUCAACUAUGACACGCAAAACGCGUGCUCCGUUGAAUGGAGUUUAUCAUG

The series covers variants of B1. Put plainly: polymerase ribozyme fitness, log enrichment relative to wild type (log ratio); higher = more active; in vitro selection for triplet polymerase activity. An outline of the steps: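 For each subunit of a heterodimeric triplet polymerase ribozyme, a mutant library was built by PCR and transcribed, then taken through a single in vitro selection round in triplicate. Selection involved annealing to a biotinylated primer, the partner subunit and triplets, incubation frozen at −7 °C, gel excision of extended constructs, capture on streptavidin beads and RT-PCR. Genotypes were retained after Illumina sequencing of inputs and outputs only with ≥10 input reads and ≥1 read in each output. Fitness is defined as the logarithm of a genotype's enrichment relative to wild-type enrichment, using inverse-variance-weighted averages across replicates, with the logarithm taken to base 2.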
GGAUCUUCUCCAUCUAACAAAAAAGACAAAUCUGCCACAAAGCUUGAGAGCAUCUACGGAUGCAGAGGCGGCAGCCUUCGGUGGCACGAUAGCGCCAACGUUCUCAACUAUGACACGCAAAACGCGUGCUCCGUUGAAUGGAGUUUAUCAUG [G11C U56A G86A]: the “polymerase ribozyme fitness (log ratio)” value is not above -4.2. In the case of GGAUCUUCUCCAGCUAACAAAAAAGACAAAUCUGCCACAAAGCUUGAGAGCAUCUUCGGAUGCAGAGGCGGCAGCCUUCGGUGGCGCGAUAACGACAGCGUUCUCAACUAUGACACGCAAAACGCGUGUUCCGUUGAAUGGAGUUUAUACUG [G11C U13G G92A C95A A98G C129U C149A A150C] it was not above -4.2. The figure for GGAUCUUCUCCAUCUAACAAAAAAGACAAAUCUGCCACAAAGCUUGAGAGCAUAUUCGGAUGCAGAGGCGGCAGCCUUCGGUGGCGCGAUAGCGCCAACGGUGUCAACUAUGACACGCAAAACGCGUGCUCCGUUGAAUGGAGGUUAUCAUG [G11C C54A U101G C103G U144G] is not above -4.2. In the case of GGAUCUUCUCUUUCUUACAAAAAAGACAAAUCUGCCACAAUGCUUGAGAACAUCUUCGGAUGCAGAGGCGGCAGCCUUCGGUGUCGCGAUAGCGCCAACGUUCUCAACUAUGACACGCAAAACGCGUGCUCCGUUGAAUGGAGUUUAUCGUG [G11U A12U A16U A41U G50A G84U A150G] it was not above -4.2; in that of GGAUCUUCUCCAUCUAACAAAAAAGACAAAUCUGCCACAAAGGUUGAGAGCAUCUUCUGAUGCAGAGGCGGCAGCCUUCGGUGGCGCGAUAGCGAUAACGUUCUAAACUAAGACACGCAAAAGGCGUGCUCCGUCGAAUGGAGUUUAUCAUG [G11C C43G G58U C95A C96U C105A U111A C123G U135C], not above -4.2. Consider GGAUCUUCUCCAUCUAACAAAAAAGACAAAUCUGCCACAAAGCUUGAGAGCAUCUUCUGAUGCAGAGGCGGCAGCCUUCGGUGGCACGAUAGCGCCAACGUUCUCAACUAUGACACGCAAAACGCGUGCUCCGUUGAAUGGAGUUUAUCAUG [G11C G58U G86A], for which the “polymerase ribozyme fitness (log ratio)” value is not above -4.2. The figure for GGAUCUUCUCCAUCUAACAAAAAAGACAAAUCUGCCACAAAGCUUGAGAGCAUCUUCGGAUGCAGAGGCGGCAGUCUUCGGUGGCGCGAUAGCGCCAACGUUCUCAACUAUGACACGCAAAACGCGUGCUCCGUUGAAUGGAGUUUAUCAUG [G11C C75U] is -1.85; for GGAUCUUCUCCAUCUAACAAAAAAGACAAAUCUGCCACAAAGCUUGAGAGCAUCUUCGGAUGUAGAGGCGGCAGCCUUUGGUGGCCCGAUAGCGCCAACGUUCUCAACUAUGACACGCAAAACGCGUGCUCCGUUGAAUGGAGUUUAUCAUG [G11C C63U C79U G86C] it is not above -4.2; for GGAUCUUCUCCAUCUAACAAAAAAGACAAAUCUGCCACAAAGCUUGAGAGCAUCUUCGGAUGCAGAGGCGGCAGCCUUCGGUGGCGCGAUAGCGCCAACGUUCUCAACUAUGAUACGCAAAACGCGUGCUCCGUUGAAAGGAGUUUAUCAUG [G11C C114U U139A] it is not above -4.2. In the case of GGAUCUUCUCCAUCUAACAAAAAAGACAAAUCUGCCACAAAGCUUGAGAGAGUCUUCGGAUGCAGAGGCGGCAGCCUUGGGUGGGGCGAUAGCGCCAACGUUCUCAACUAUGACAAGCAAAACGCGUGCUCCGUUGAAUGGAGUUUAUCAUG [G11C C51A A52G C79G C85G C116A] it was not above -4.2.

For the variant GGAUCUUCUCCAUCUAACAAAAAAGACAAAUCUGCCACAAAGCUUGAGAGCAUCUUCGGAUGCAGAGGCGGCAGCCUUCGGUGGCGUGAUAGAGCCAACGUUCUCAACUAUGACACGCAACACGCGUGCUCCGUUGAAUGGAGUUUAUCAUG [G11C C87U C93A A121C], the “polymerase ribozyme fitness (log ratio)” value was not above -4.2. In the case of GGAUCUUCUCCAUCUAACAAAAAAGACAAAUCUGCCACAAAGCUUGAGAGCAUCUUCGGAUGCAGAGGCGGCAGCCUUCGGGGACGCGAUAGCGCCAACGUUCUCAACUAUGACACGCAAAACGCGUGCUCCGUUGAAUGGACUUUAUCAUG [G11C U82G G84A G143C] it was not above -4.2; in that of GGAUCUUCUCCAUCUAACAAAAAAGACAAAUCUCCCACAAAGCUUGAGAGCAUCUUCGGUUGCAGAGGCGGCAGCCUGCGGUGGAGCGAUAGCGCCAACGUUCUCAACUAUGACAUGCAAAACGCGUGCUCCGUUGAAUGGAGUUUAUCAUG [G11C G34C A60U U78G C85A C116U], not above -4.2; in that of GGAUCUUCUCCAUCUAACAAAAAAGACAAAUCUGCCACAAAGCUUGACAGCAUCUUCGACUGCAGAGGCGGCAGCCUUCGGUGGCGCGAUAGCGCCAACGUUCUCAAAUAUGACACGCAAAACGCGUGCUCCGUUAAAUGGAGUUUAUCAUG [G11C G48C G59A A60C C108A G136A], not above -4.2.

With GGAUCUUCUCCAUCUAACAAAAAAGACAAAUCUGCCACAAAGCUUGAGAGCAUCUGCGGAUGCAGAGGCGGCAGCAUUGGGAGGCGCGAUAGGGCCAACGUGUUCAACUAUGACACGCAAAACGAGUGUUCCGUUGAAUGGAGUGUAUCUUG [G11C U56G C76A C79G U82A C93G U102G C103U C125A C129U U145G A150U], the “polymerase ribozyme fitness (log ratio)” value is not above -4.2. In the case of GGAUCUUCUCCAUCUAACAAAAAAGACAAAUCUGCCACAAAGCUUGAGAGCAUCUUCGGAUGCAGAGGCGGCAGCCUUCGGUGGCGCGAUAGCGCCAACGUUCUCAACUAUGACAGGCAAAACGCGUGCUCCGUUGAAUGGAGUUUAUCAUG [G11C C116G] it was -0.794.

Regarding GGAUCUUCUCCAUCUAACAAAAAAGACAAAUCUGCCACAAAACUUGAGAGCAUCUUCGGAUGCAGAGGCGGCAGCCUUCGGUGGCGCCAUAGCGCCAACGUCCUCAACUAUGACACGCAAAACGCUUGCUCCGUUGAAUGGAGUUUAUCAUG [G11C G42A G88C U102C G126U], the “polymerase ribozyme fitness (log ratio)” value is not above -4.2. On to GGAUCUUCUCCAUCUAACAAAAAAGACAAAUCUGCCACAAAGCUUGAGAGUAUCUUCGGAUGCAGAGGCGGCAGCCUUCGGUGGUGCGAUAGCGCCAACGUUCUCAACUAUGACACGCAAAACGCGUGCUCCGUUGAAUCGAGUUUAUCAUG [G11C C51U C85U G140C], for which the “polymerase ribozyme fitness (log ratio)” value is not above -4.2. The figure for GGAUCUUCUCUGUCUAACAAAAAAGACAAUUCUGCCACAAAGCUUGAGAGCAACUUCGGAUGCAGAGGCGGCAGCCUUCGGUGGCGCGAUAGCGUCAACGUUCUCAACUAUGACACGCAAAACGCGUGCUCUGUUGAAUGGAGUUUAUCAUG [G11U A12G A30U U53A C95U C132U] is not above -4.2.
